Measured values reported in PMC7819943, “Rice protein-binding microarrays: a tool to detect cis-acting elements near promoter regions in rice”.
The other results are listed elsewhere or left out.

These sequences were tested against T1, OsWOX13 (Oryza sativa, UniProt Q5QMM3 1-267) (assay: protein-binding microarray (RPBM); PBS, 2% BSA, 51.3 ng/ul salmon testes DNA, 50 uM zinc acetate, 200 nM TF, 25 C, 1 h; high values mean tight binding). Settings: protein: recombinant; tags: N-terminal polyhistidine and DsRed monomer fusion (pET32a); label: CyDye5-dUTP incorporated in the synthesized complementary strand; 3' TTTTT single-stranded linker to array surface; dsDNA, one strand shown.
T1 sequence: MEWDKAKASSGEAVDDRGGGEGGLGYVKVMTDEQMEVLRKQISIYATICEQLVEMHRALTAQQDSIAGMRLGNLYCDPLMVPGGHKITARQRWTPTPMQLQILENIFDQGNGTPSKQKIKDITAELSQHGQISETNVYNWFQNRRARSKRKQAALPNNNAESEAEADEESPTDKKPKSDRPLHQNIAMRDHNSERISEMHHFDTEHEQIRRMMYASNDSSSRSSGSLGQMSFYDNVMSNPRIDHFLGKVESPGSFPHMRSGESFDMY
Method in brief: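 A custom Agilent array was converted to double-stranded form by primer extension with Cy5-dUTP and blocked with 2% BSA. Protein at 200 nM in PBS with 2% BSA, salmon testes DNA and 50 µM zinc acetate was applied for 1 h at 25 °C, followed by washing. The proteins were polyhistidine–DsRed N-terminal fusions of transcription factors, expressed in E. coli BL21-CodonPlus and Ni–NTA-purified. The binding signal is per-feature fluorescence intensity (arbitrary units) from an Axon 4000B scanner.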

Sequence	binding signal
CCAAATCAATCAGCCACCTCCAGTGCGTCGTTCTCTCGACCGGAGTCACCTAGTGCAG	14500 fluorescence intensity (a.u.)
CAAATTACGCCCAAACAAATTGGCGAGAGCCGAGAAGAACCGGAGTCACCTAGTGCAG	7970 fluorescence intensity (a.u.)
AATTTAATTTCGAATTAATAATTGTAAAATTATGTTTACCCGGAGTCACCTAGTGCAG	41400 fluorescence intensity (a.u.)
GCCCAACGAGACTGAGAGTTAATTGGGCTGGGCCATATGCCGGAGTCACCTAGTGCAG	10400 fluorescence intensity (a.u.)
CTCTAAATTAGTGTCTAAAGACATGGACTAAAGTTAAGTCCGGAGTCACCTAGTGCAG	31500 fluorescence intensity (a.u.)
CCTGATGTACTAATGGGTTCCACCGTATATAAGATCCAATCGGAGTCACCTAGTGCAG	5110 fluorescence intensity (a.u.)
AGTCAATTTGCACTCGTTATACCCTGGTTTTACGGTTGAACGGAGTCACCTAGTGCAG	6480 fluorescence intensity (a.u.)
GCTATTTGACGATATGATGATAAGACATTGTTATACATCTCGGAGTCACCTAGTGCAG	3380 fluorescence intensity (a.u.)
TTTGTATCTATCTACCAACATCAATCAATACATGCTAACCCGGAGTCACCTAGTGCAG	4870 fluorescence intensity (a.u.)
TCTAAACTGATAATTGCAAATTGTAATTGATAGCATTGAGCGGAGTCACCTAGTGCAG	63700 fluorescence intensity (a.u.)
CCTGAAACCACTTAATTTATCACAAACACCCCTCGTAGACCGGAGTCACCTAGTGCAG	5770 fluorescence intensity (a.u.)
CACACCATTCCCAATCAAAGACGAGATAGCTCAAGAAGCACGGAGTCACCTAGTGCAG	6540 fluorescence intensity (a.u.)
TATAATTAATTGAGTATTTCTAAAATTGGATAAGACATATCGGAGTCACCTAGTGCAG	28900 fluorescence intensity (a.u.)
GGTGATATCATTAATTGCCAAGAATTCCATACATTCTTCCCGGAGTCACCTAGTGCAG	27000 fluorescence intensity (a.u.)
CATAATGGTAATATTAACGTGGTAGATATCTTACACTAAACGGAGTCACCTAGTGCAG	6620 fluorescence intensity (a.u.)
AACCTTGAATATTTAATTTAGACTTCACACGAATTGCAGACGGAGTCACCTAGTGCAG	3310 fluorescence intensity (a.u.)
CCTCGAAAGTGATTGGAATCTAATCCGTAACCCTAAACCACGGAGTCACCTAGTGCAG	33800 fluorescence intensity (a.u.)
ACGCCATACTTAACGCTGATTGCACTTATTAATTCTGTAGCGGAGTCACCTAGTGCAG	11700 fluorescence intensity (a.u.)
TTTGATAAACTAGTACATCCTTTTGTTTCACCATTTCGGCCGGAGTCACCTAGTGCAG	4270 fluorescence intensity (a.u.)
TTGGGATTGAGAAATGAATGAAGGGTTAGGATTAAATGGACGGAGTCACCTAGTGCAG	26700 fluorescence intensity (a.u.)
TTTACAAGTGGATTGGATAATTGTTGCTGCAGAACATGACCGGAGTCACCTAGTGCAG	8040 fluorescence intensity (a.u.)

Sequence	binding signal
TTCTAATATATATTGACGTAATCATTTTACGGGTTCGTGACGGAGTCACCTAGTGCAG	10500 fluorescence intensity (a.u.)
TATGCTAGGAGCACTTAATTAATTGCTGTTCCTCTCTAGGCGGAGTCACCTAGTGCAG	4620 fluorescence intensity (a.u.)
ATTTAATTTAATTCAGGAATTTTGTTGAATAATGGATGCTCGGAGTCACCTAGTGCAG	37700 fluorescence intensity (a.u.)
CGATCTGATGGACAGTCTCGATTGGTTCTGACGTAGATAACGGAGTCACCTAGTGCAG	23600 fluorescence intensity (a.u.)
CCATCCCCATCCATCCATCAATCTGCTCGCGCGGATCCGGCGGAGTCACCTAGTGCAG	3460 fluorescence intensity (a.u.)
CAAATTAAAGGATAATCAGCTTTACTCTAGTGGATGCATGCGGAGTCACCTAGTGCAG	8500 fluorescence intensity (a.u.)
GAGATTAATATATAATAGCAAGACATACCTCCATCTAACACGGAGTCACCTAGTGCAG	4490 fluorescence intensity (a.u.)
CGTCTATATAATTAATAACTTATTCTATACTAATTAATCTCGGAGTCACCTAGTGCAG	7040 fluorescence intensity (a.u.)
TTCCTAATTTATTTAGAATTCTCACCAGGTCATAAGAAAGCGGAGTCACCTAGTGCAG	12100 fluorescence intensity (a.u.)
TCTTAATTTAATTATCTATGTTATGTATAAAATTAGATGCCGGAGTCACCTAGTGCAG	44300 fluorescence intensity (a.u.)
CCCCATTATTCTCAATCAAATCAGTGCATGATCAGTAGGGCGGAGTCACCTAGTGCAG	29800 fluorescence intensity (a.u.)
GCGACAGGACGAGGTAATCAAGAAACGGGATTAAGATTAGCGGAGTCACCTAGTGCAG	4460 fluorescence intensity (a.u.)
GACACAAATTGAAATTATCATGAAAGACTTGAGTGAAGCACGGAGTCACCTAGTGCAG	44600 fluorescence intensity (a.u.)
TTCAATTAATTATACAAAAGGACATTTCAACTGTTAAGTGCGGAGTCACCTAGTGCAG	20200 fluorescence intensity (a.u.)
AGGAAGGCGCTGCAGAGGCCTGGGTTACCGGCGAATGACGCGGAGTCACCTAGTGCAG	9400 fluorescence intensity (a.u.)
AATCACTCAATTATGGGGCAAAAGAGCACAATTTTCTTCTCGGAGTCACCTAGTGCAG	4190 fluorescence intensity (a.u.)
TGGATGATTAGGATGGAGAGAATGCCACCCCTGCCATTACCGGAGTCACCTAGTGCAG	19600 fluorescence intensity (a.u.)
ATCAGCCAAAATTTAAATTTACAACCTTAAATTTGGAGTTCGGAGTCACCTAGTGCAG	7880 fluorescence intensity (a.u.)
GTGCTTTAATCAGTAATTTTGCAATTGCTTTTGAATTTCACGGAGTCACCTAGTGCAG	5640 fluorescence intensity (a.u.)
GCATAAATTGAACCCATTTGAATCGTAGATGCAAAAGGATCGGAGTCACCTAGTGCAG	19400 fluorescence intensity (a.u.)
GATCGCCACAAATTGACATGTATATGGTGACACGAATCGACGGAGTCACCTAGTGCAG	13000 fluorescence intensity (a.u.)
